# This is one part of the list.
# System: T1, Caupolican (Caup) homeodomain DNA-binding domain
# T1 sequence: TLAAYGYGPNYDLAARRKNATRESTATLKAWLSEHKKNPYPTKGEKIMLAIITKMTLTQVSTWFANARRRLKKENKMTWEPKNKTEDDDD
# Test: PBM E-score (8-mer, recovered from the published 9-mer minima) (E-score (dimensionless, -0.5 to 0.5)); Drosophila protein; higher = stronger relative binding preference, active = 0.31 or more
# How it was run: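 An enrichment score, with higher meaning stronger, expresses relative binding preference for each short DNA word. The protein used was Caup's homeodomain DNA-binding domain (residues 214-303), produced by in vitro transcription and translation and tested at 100 nM on custom-designed protein binding microarrays. The 8-mer values were recovered from published 9-mer scores, each equal to the lower of its two constituent 8-mer scores.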
row,Sequence,PBM E-score
1,GCCTCTAA,inactive: -0.115
2,CGATAACC,inactive: 0.0347
3,CCTTTCCA,inactive: -0.0963
4,CTTATCCC,inactive: -0.0209
5,CGTCGGGC,inactive: -0.238
6,GAACTAAC,inactive: -0.0656
7,AATACTCC,inactive: 0.0605
8,CAGTGCCC,inactive: -0.151
9,AACTGGAT,inactive: 0.0596
10,AATCTATC,inactive: 0.122
11,ACTGAGGC,inactive: -0.11
12,GAAGCGTA,inactive: -0.0769
13,CGGTTATA,inactive: 0.0519
14,CTGCCCGC,inactive: -0.16
15,GCACGGGA,inactive: -0.0997
16,GACCTTTA,inactive: -0.0271
17,CGAATCCA,inactive: 0.0564
18,ATTTAAGC,≥ 0.0678
19,GTGCATTA,inactive: 0.0902
20,GCAGCCTA,inactive: -0.131
21,TGTATACA,active: ≥ 0.356
22,AAACATTG,inactive: 0.183
23,AGTCGAGC,inactive: -0.101
24,AGTAATTC,inactive: 0.122
25,AGAGAATA,inactive: 0.0241

row,Sequence,PBM E-score
1,GGCACCTA,inactive: -0.136
2,AGCATCTA,inactive: 0.0509
3,CACATCGG,inactive: 0.0641
4,AACATCGG,inactive: 0.166
5,AATAAGGG,inactive: 0.00741
6,CTATCCAA,inactive: 0.0902
7,ACACCCAG,inactive: 0.0381
8,TCCCTTCA,≥ -0.0331
9,ATAGAGCA,≥ 0.0478
10,GTCAGGTA,inactive: 0.116
11,GTATGTGA,inactive: 0.193
12,CGTAAACA,inactive: 0.192
13,CTGTCCTC,inactive: -0.0392
14,GACGTAGC,inactive: -0.0265
15,ACGCTACG,inactive: -0.0675
16,CATATGTA,active: 0.334
17,ATATTCTA,inactive: 0.182
18,TAGTGATA,≥ 0.138
19,CTACTTCC,inactive: 0.0612
20,AAATGGGC,inactive: -0.128
21,CGAGGTAC,inactive: 0.104
22,GGACCAAC,inactive: -0.0642
23,TAGCTTCA,inactive: -0.0401
24,CGACATGA,active: 0.395
25,AGCTGACG,inactive: -0.0449

row,Sequence,PBM E-score
1,CTTCATTA,inactive: 0.00457
2,GGTGATGA,inactive: 0.0207
3,CAACACCA,inactive: 0.179
4,TACGAGCA,inactive: 0.142
5,CGCTACCA,inactive: -0.0582
6,AAACGAAC,inactive: 0.101
7,GGAGATGA,inactive: 0.00358
8,ACAAACAC,inactive: 0.301
9,GTTGCTGA,inactive: 0.0952
10,CCTTTTCC,inactive: -0.124
11,AGGGATAC,inactive: 0.0399
12,AACCAGCG,inactive: -0.0304
13,CATCAACC,inactive: 0.113
14,CATTTTGC,inactive: 0.0868
15,GGTCAACA,inactive: 0.159
16,GTTCATGA,inactive: 0.115
17,CTCAATAC,inactive: 0.0995
18,AGAGATGA,inactive: -0.00602
19,AGCAGAAA,inactive: -0.00844
20,ATGCTCAG,inactive: 0.0153
21,CATTAGCG,inactive: -0.0517
22,AGCGCATG,inactive: -0.0275
23,TAGTCCCA,inactive: -0.0546
24,ACTAGAAA,inactive: 0.0206
25,AACCCAAC,inactive: 0.0724

row,Sequence,PBM E-score
1,GATTCCTA,inactive: -0.0121
2,ACTTTGAC,inactive: 0.0611
3,ATGAAGCA,inactive: 0.0527
4,CATCCGCG,inactive: -0.013
5,ATAGCTAT,inactive: 0.0666
6,AATGACGT,inactive: 0.112
7,AAGTACTA,inactive: 0.197
8,AAGTGGCC,inactive: -0.186
9,ATTGCGTA,inactive: 0.0504
10,TGATCCAA,inactive: 0.0971
11,TAATATGA,inactive: 0.182
12,CGAGGGTA,inactive: -0.154
13,ACTATACA,inactive: 0.245
14,CTTGAAGA,inactive: -0.0903
15,ACAGCTTA,inactive: 0.0802
16,ATAAGGAT,≥ 0.117
17,CGTAATGA,inactive: 0.094
18,CGGCATCA,≥ -0.0217
19,GCTGGTAA,inactive: 0.00432
20,ATGCTAGG,inactive: -0.0403
21,CGCTATGA,inactive: 0.0359
22,AGTCGGAT,inactive: 0.00516
23,AGTAGTTA,inactive: 0.169
24,GTAAAACA,inactive: 0.174
25,CTCGAGAA,inactive: -0.0341

row,Sequence,PBM E-score
1,CGAGCCCA,inactive: -0.102
2,ACCGCTAC,inactive: -0.121
3,AGTCGCCC,inactive: -0.191
4,CGGCGTCC,inactive: -0.152
5,AGAGGTAG,inactive: -0.0483
6,TATAAAAA,inactive: 0.0823
7,CAATGAGC,inactive: -0.0635
8,AAGTCATT,inactive: 0.0183
9,CATGAGCA,inactive: 0.0293
10,AAGTCTCC,inactive: -0.0551
11,CAATTGTG,inactive: 0.0958
12,ATACCGTC,inactive: -0.0836
13,AAGCCTAA,inactive: -0.0994
14,CTAGACTC,inactive: -0.123
15,ATGCATGA,inactive: 0.122
16,CGAGTCAA,inactive: 0.0846
17,CGGCGCCG,inactive: -0.183
18,TAAACTCA,inactive: 0.0783
19,AGCCACAC,≥ -0.0162
20,AAACTCAT,≥ 0.127
21,CGCAGATC,inactive: -0.116
22,CTGATACA,inactive: 0.188
23,CGACTACG,inactive: -0.019
24,AACTCTCC,inactive: -0.0907
25,AGACATGC,inactive: 0.303

row,Sequence,PBM E-score
1,AAGGGGTA,inactive: -0.149
2,AACACCGA,inactive: 0.161
3,CAGCTGTC,inactive: -0.00715
4,AGGTGCAT,inactive: 0.0539
5,GCTACCAC,inactive: -0.0253
6,TGCGTGAA,inactive: 0.0802
7,CGAAACAG,inactive: 0.0527
8,GCCTACAC,inactive: 0.0771
9,ATTCGTGG,inactive: 0.0194
10,CTGCGGGA,inactive: -0.245
11,GCATCGAA,inactive: -0.0547
12,AATCTACT,inactive: 0.0171
13,AGCTCGCC,inactive: -0.197
14,GTCTTGCA,inactive: 0.0651
15,GCATCACA,inactive: 0.138
16,ACGTGAGC,inactive: -0.0733
17,AGACCGTG,inactive: 0.0373
18,CCGACCGC,inactive: -0.26
19,TAGGACGA,inactive: 0.0114
20,GAATCCGC,inactive: -0.165
21,TAACATCA,inactive: 0.305
22,ACCCAGGG,inactive: -0.145
23,ACGCGTCA,≥ 0.0959
24,GTCTGACA,inactive: 0.197
25,ACTACCTC,inactive: 0.0403

row,Sequence,PBM E-score
1,GTAAGCTA,inactive: 0.0865
2,ACTTCTGA,inactive: 0.0332
3,ATAAACCC,inactive: 0.0213
4,CAAACAAC,inactive: 0.293
5,GGGGATGA,inactive: -0.113
6,AAGTGAGC,inactive: -0.0682
7,TAAGCCGA,inactive: -0.0833
8,CCCACACA,inactive: -0.153
9,ACGACCTG,inactive: -0.0314
10,ACTTACCC,inactive: -0.0346
11,AGCGTCAG,inactive: -0.0242
12,ACTTCGTA,≥ 0.0633
13,CCTGATGA,inactive: -0.016
14,GACAACGC,inactive: 0.152
15,AAGAATCG,inactive: 0.0339
16,ATGAAGGA,≥ 0.0485
17,GCCACCCA,inactive: -0.168
18,ATCAATTG,inactive: 0.129
19,ACCTCGCG,inactive: -0.0928
20,CTCTTTGA,inactive: -0.0801
21,CTGGATGC,inactive: -0.13
22,GAGTCATC,inactive: -0.092
23,AACTCCTT,≥ 0.0649
24,CGCTGAAG,inactive: -0.19
25,ACCTACCG,inactive: -0.0767

row,Sequence,PBM E-score
1,ACGTGCAG,inactive: -0.0625
2,CAATTGAA,inactive: 0.0207
3,GTTATGAA,inactive: 0.132
4,CCGTTGCA,inactive: -0.0577
5,ACCTTGCG,inactive: -0.089
6,CTACCGGC,inactive: -0.0933
7,ATTCGGTG,inactive: 0.0946
8,AGAGTCCA,inactive: -0.0854
9,AAGCTACT,inactive: 0.0372
10,AAATCCGT,inactive: 0.0968
11,GACTCTCC,inactive: -0.127
12,GACTGACA,inactive: 0.154
13,TTCCGGAA,inactive: -0.0746
14,CAAAGAAA,inactive: -0.0387
15,ACCCCATG,inactive: -0.0338
16,CTGCAAGA,inactive: -0.108
17,ATAACCAT,inactive: 0.0905
18,GACAGAAC,inactive: 0.084
19,ACCCCGGG,inactive: -0.172
20,ATTATCGG,inactive: 0.0382
21,GGGAGTCA,inactive: -0.111
22,GCTCCATA,inactive: -0.111
23,CGTGCTCC,inactive: -0.0113
24,AATCCACC,inactive: -0.0363
25,ATAACGTG,inactive: 0.103

row,Sequence,PBM E-score
1,ACACTGGT,≥ 0.149
2,CCGTACAA,inactive: 0.152
3,CGAGCCAG,inactive: -0.0646
4,CAAATGGA,inactive: 0.0816
5,AGCCTATC,inactive: -0.158
6,CAAGCCAG,inactive: -0.0282
7,ACTGTACG,inactive: 0.0534
8,CGGTCACC,inactive: -0.124
9,ATTTTGAG,inactive: 0.0566
10,AGCGGGCA,inactive: -0.233
11,AAGCTAAA,inactive: 0.034
12,CAGTTGCG,inactive: -0.0806
13,ACAGTTTG,inactive: 0.0438
14,ACGATTAT,inactive: 0.144
15,AGCAGGTG,inactive: -0.0416
16,AACCGCCT,≥ -0.0604
17,GCGCCCCA,inactive: -0.31
18,AACAGCTC,inactive: -0.0405
19,AGGAAATG,inactive: 0.0222
20,TAAGTAAA,inactive: 0.0166
21,GCTGGTTA,inactive: 0.1
22,CATACCAG,inactive: 0.0479
23,AAAGTTAG,inactive: 0.0333
24,ATGTCGCC,inactive: 0.208
25,CACAAAAA,inactive: 0.133

# Source: the supplement of paper PMC3724861
